Measured values from paper PMC9911399, “Two distinct binding modes provide the RNA-binding protein RbFox with extraordinary sequence specificity”.
Numbering of substitutions follows the chain as printed; changes in the protein carry UniProt numbers. The list shows a part of the results.

T1: RBFOX1 RRM (Homo sapiens, UniProt Q9NWB1 109-208)
T1 sequence: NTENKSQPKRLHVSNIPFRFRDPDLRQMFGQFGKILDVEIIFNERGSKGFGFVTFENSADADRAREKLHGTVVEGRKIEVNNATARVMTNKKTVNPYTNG

B1: ACUAUAC (DNA:RNA)
RNA: GGGAGACCGGAAUUCAGAUUGUCCACUAUACUUAAAUCCCGUCGUAGCCACCA
DNA 1: CAATCTGAATTCCGGTCTCCC
DNA 2: TGGTGGCTACGACGGGATT
B2: AUUGGCA (DNA:RNA)
RNA: B1 RNA with C26U, A28G, U29G, A30C, C31A
DNA 1: CAATCTGAATTCCGGTCTCCC
DNA 2: TGGTGGCTACGACGGGATT
B3: UCGACGC (DNA:RNA)
RNA: B1 RNA with A25U, U27G, U29C, A30G
DNA 1: CAATCTGAATTCCGGTCTCCC
DNA 2: TGGTGGCTACGACGGGATT
B4: AAAGUCA (DNA:RNA)
RNA: B1 RNA with C26A, U27A, A28G, A30C, C31A
DNA 1: CAATCTGAATTCCGGTCTCCC
DNA 2: TGGTGGCTACGACGGGATT
B5: UCGUGAA (DNA:RNA)
RNA: B1 RNA with A25U, U27G, A28U, U29G, C31A
DNA 1: CAATCTGAATTCCGGTCTCCC
DNA 2: TGGTGGCTACGACGGGATT
B6: GCGCGGU (DNA:RNA)
RNA: B1 RNA with A25G, U27G, A28C, U29G, A30G, C31U
DNA 1: CAATCTGAATTCCGGTCTCCC
DNA 2: TGGTGGCTACGACGGGATT
B7: UUGCGAC (DNA:RNA)
RNA: B1 RNA with A25U, C26U, U27G, A28C, U29G
DNA 1: CAATCTGAATTCCGGTCTCCC
DNA 2: TGGTGGCTACGACGGGATT
B8: UUACUAU (DNA:RNA)
RNA: B1 RNA with A25U, C26U, U27A, A28C, C31U
DNA 1: CAATCTGAATTCCGGTCTCCC
DNA 2: TGGTGGCTACGACGGGATT
B9: AGGCCGA (DNA:RNA)
RNA: B1 RNA with C26G, U27G, A28C, U29C, A30G, C31A
DNA 1: CAATCTGAATTCCGGTCTCCC
DNA 2: TGGTGGCTACGACGGGATT
B10: UGGCCAG (DNA:RNA)
RNA: B1 RNA with A25U, C26G, U27G, A28C, U29C, C31G
DNA 1: CAATCTGAATTCCGGTCTCCC
DNA 2: TGGTGGCTACGACGGGATT
B11: AAAGGGG (DNA:RNA)
RNA: B1 RNA with C26A, U27A, A28G, U29G, A30G, C31G
DNA 1: CAATCTGAATTCCGGTCTCCC
DNA 2: TGGTGGCTACGACGGGATT
B12: UCGCACC (DNA:RNA)
RNA: B1 RNA with A25U, U27G, A28C, U29A, A30C
DNA 1: CAATCTGAATTCCGGTCTCCC
DNA 2: TGGTGGCTACGACGGGATT
B13: CUCGUCG (DNA:RNA)
RNA: B1 RNA with A25C, C26U, U27C, A28G, A30C, C31G
DNA 1: CAATCTGAATTCCGGTCTCCC
DNA 2: TGGTGGCTACGACGGGATT
B14: GCUUAGC (DNA:RNA)
RNA: B1 RNA with A25G, A28U, U29A, A30G
DNA 1: CAATCTGAATTCCGGTCTCCC
DNA 2: TGGTGGCTACGACGGGATT
B15: GGACGGU (DNA:RNA)
RNA: GGGAGACCGGAAUUCAGAUUGUCCGGACGGUUUAAAUCCCGUCGUAGCCACCA
DNA 1: CAATCTGAATTCCGGTCTCCC
DNA 2: TGGTGGCTACGACGGGATT
B16: GGAUGCU (DNA:RNA)
RNA: B15 RNA with C28U, G30C
DNA 1: CAATCTGAATTCCGGTCTCCC
DNA 2: TGGTGGCTACGACGGGATT
B17: GCAAUUU (DNA:RNA)
RNA: B1 RNA with A25G, U27A, A30U, C31U
DNA 1: CAATCTGAATTCCGGTCTCCC
DNA 2: TGGTGGCTACGACGGGATT
B18: GGCCCGA (DNA:RNA)
RNA: B15 RNA with A27C, G29C, U31A
DNA 1: CAATCTGAATTCCGGTCTCCC
DNA 2: TGGTGGCTACGACGGGATT
B19: GUUUAGU (DNA:RNA)
RNA: B15 RNA with G26U, A27U, C28U, G29A
DNA 1: CAATCTGAATTCCGGTCTCCC
DNA 2: TGGTGGCTACGACGGGATT
B20: AUAUUUA (DNA:RNA)
RNA: B1 RNA with C26U, U27A, A28U, A30U, C31A
DNA 1: CAATCTGAATTCCGGTCTCCC
DNA 2: TGGTGGCTACGACGGGATT
B21: CUAUUAU (DNA:RNA)
RNA: B1 RNA with A25C, C26U, U27A, A28U, C31U
DNA 1: CAATCTGAATTCCGGTCTCCC
DNA 2: TGGTGGCTACGACGGGATT
B22: AGGGGGU (DNA:RNA)
RNA: B15 RNA with G25A, A27G, C28G
DNA 1: CAATCTGAATTCCGGTCTCCC
DNA 2: TGGTGGCTACGACGGGATT
B23: GGAACGA (DNA:RNA)
RNA: B15 RNA with C28A, G29C, U31A
DNA 1: CAATCTGAATTCCGGTCTCCC
DNA 2: TGGTGGCTACGACGGGATT
B24: AUACGCC (DNA:RNA)
RNA: B15 RNA with G25A, G26U, G30C, U31C
DNA 1: CAATCTGAATTCCGGTCTCCC
DNA 2: TGGTGGCTACGACGGGATT
B25: GUAUGGA (DNA:RNA)
RNA: B15 RNA with G26U, C28U, U31A
DNA 1: CAATCTGAATTCCGGTCTCCC
DNA 2: TGGTGGCTACGACGGGATT
B26: UAUGCCU (DNA:RNA)
RNA: B1 RNA with A25U, C26A, A28G, U29C, A30C, C31U
DNA 1: CAATCTGAATTCCGGTCTCCC
DNA 2: TGGTGGCTACGACGGGATT
B27: UAGUCCC (DNA:RNA)
RNA: B1 RNA with A25U, C26A, U27G, A28U, U29C, A30C
DNA 1: CAATCTGAATTCCGGTCTCCC
DNA 2: TGGTGGCTACGACGGGATT
B28: UCGAAAU (DNA:RNA)
RNA: B1 RNA with A25U, U27G, U29A, C31U
DNA 1: CAATCTGAATTCCGGTCTCCC
DNA 2: TGGTGGCTACGACGGGATT
B29: GCGAUGU (DNA:RNA)
RNA: B1 RNA with A25G, U27G, A30G, C31U
DNA 1: CAATCTGAATTCCGGTCTCCC
DNA 2: TGGTGGCTACGACGGGATT
B30: CGUUGUG (DNA:RNA)
RNA: B15 RNA with G25C, A27U, C28U, G30U, U31G
DNA 1: CAATCTGAATTCCGGTCTCCC
DNA 2: TGGTGGCTACGACGGGATT
B31: CGGUAGG (DNA:RNA)
RNA: B15 RNA with G25C, A27G, C28U, G29A, U31G
DNA 1: CAATCTGAATTCCGGTCTCCC
DNA 2: TGGTGGCTACGACGGGATT

Each binder was assayed against T1, RBFOX1 RRM (assay: EMSA; HiTS-Eq, 1 nM pool, 10 min; buffer printed only for the single-RNA assays: 10 mM Tris pH 7.5, 150 mM NaCl, 3.4 mM EDTA, 0.001% NP-40, 30 C). Conditions: tags: His6 N-terminal (pET28a); label: 5' 32P.
Summary of the method: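 Relative association constants, normalised to the cognate motif, were derived by comparing read counts of each RNA species with those of the control reaction. The RNA sequenced was the free fraction, separated by 8% native PAGE after a 10 min equilibration in 50 µL of 1 nM 5′-radiolabelled RNA (7 randomized nucleotides) with increasing concentrations of purified wild-type or mutant RbFox RRM.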
For B1, the binding signal was 0.00114 KA relative to UGCAUGU. B2 was tested, and the binding signal was 0.0143 KA relative to UGCAUGU. For B3, the binding signal was 0.00828 KA relative to UGCAUGU. In the case of B4, the binding signal is reported as 0.00111 KA relative to UGCAUGU. In the case of B5, the binding signal is reported as 0.0077 KA relative to UGCAUGU. With B6 the binding signal was 0.0228 KA relative to UGCAUGU. B7 was tested, and the binding signal was 0.00598 KA relative to UGCAUGU. For B8, the binding signal was 0.00582 KA relative to UGCAUGU. In the case of B9, the binding signal is reported as 0.0101 KA relative to UGCAUGU. B10 was tested, and the binding signal was 0.0186 KA relative to UGCAUGU. For B11, the binding signal was 0.00579 KA relative to UGCAUGU. In the case of B12, the binding signal is reported as 0.0108 KA relative to UGCAUGU. B13 was tested, and the binding signal was 0.0105 KA relative to UGCAUGU. In the case of B14, the binding signal is reported as 0.0153 KA relative to UGCAUGU. For B15, the binding signal was 0.0217 KA relative to UGCAUGU. For B16, the binding signal was 0.0261 KA relative to UGCAUGU. B17 was tested, and the binding signal was 0.00549 KA relative to UGCAUGU. With B18 the binding signal was 0.000338 KA relative to UGCAUGU. In the case of B19, the binding signal is reported as 0.0122 KA relative to UGCAUGU. For B20, the binding signal was 0.000275 KA relative to UGCAUGU. In the case of B21, the binding signal is reported as 0.00107 KA relative to UGCAUGU. In the case of B22, the binding signal is reported as 0.0184 KA relative to UGCAUGU. B23 was tested, and the binding signal was 0.0157 KA relative to UGCAUGU. In the case of B24, the binding signal is reported as 0.00461 KA relative to UGCAUGU. For B25, the binding signal was 0.00526 KA relative to UGCAUGU. With B26 the binding signal was 0.00851 KA relative to UGCAUGU. With B27 the binding signal was 0.00487 KA relative to UGCAUGU. In the case of B28, the binding signal is reported as 0.00586 KA relative to UGCAUGU. In the case of B29, the binding signal is reported as 0.0167 KA relative to UGCAUGU. For B30, the binding signal was 0.0192 KA relative to UGCAUGU. In the case of B31, the binding signal is reported as 0.0112 KA relative to UGCAUGU.
